Data reported in the supplement of paper PMC12217912.
Some of the results follow. The full chains were built here from the parent and the listed change. Inactive controls read about 0.05.

B1: TEV protease; numbered along this chain (parent)
chain: MGESLFKGPRDYNPISSSICHLTNESDGHTTSLYGIGFGPFIITNKHLFRRNNGTLVVQSLHGVFKVKDTTTLQQHLVDGRDMIIIRMPKDFPPFPQKLKFREPQREERICLVTTNFQTKSMSSMVSDTSCTFPSGDGIFWKHWIQTKDGQCGSPLVSTRDGFIVGIHSASNFTNTNNYFTSVPKNFMELLTNQEAQQWVSGWRLNADSVLWGGHKVFMVKPEEPFQPVKEATQL

Variants of: B1
Experiment: raw area under fraction-flipped curve 0-4 h after induction (AUC4h, not background-subtracted), DNA-recorder readout of cleavage of the substrate (dimensionless); higher = more cleavage of the substrate by the protease variant
Settings: temperature: 34 °C; time window: 0-4 h after rhamnose induction
Procedure: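 In vivo DNA recorder in E. coli TOP10(DE3) ΔrhaA at 34 °C. Each TEVp single-site mutant (parent TEVp 0) is paired with a single-site variant of the 7-mer TEVs (canonical ENLYFQ|S). The substrate sits between flexible linkers in a Bxb1-sfGFP-TEVs-SsrA fusion, so cleavage stabilises Bxb1 and speeds flipping of a recombination array, read by NGS. The value is the raw area under the fraction-flipped curve over 0-4 h after rhamnose induction (AUC4h), with ≥20 reads per time point. It is not background-subtracted; inactive controls average about 0.047.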
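Also: Bxb1 expression induced with 0.2% (w/v) L-rhamnose at OD600 near 0.5, cultures sampled hourly, flipped fraction per protease–substrate barcode pair counted by paired-end Illumina sequencing.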

Variant | area with substrate ENAYFQS | area with substrate ENDYFQS | area with substrate ENEYFQS | area with substrate ENFYFQS | area with substrate ENGYFQS | area with substrate ENHYFQS | area with substrate ENIYFQS | area with substrate ENMYFQS | area with substrate ENNYFQS | area with substrate ENPYFQS | area with substrate ENQYFQS | area with substrate ENRYFQS | area with substrate ENSYFQS | area with substrate ENTYFQS | area with substrate ENWYFQS | area with substrate ENYYFQS | area with substrate ENCYFQS | area with substrate ENKYFQS | area with substrate ENVYFQS
V67D | 0.0342 | 0.0488 | 0.0357 | 0.0599 | 0.0513 | 0.054 | 0.0699 | 0.0606 | 0.0483 | 0.0699 | 0.043 | 0.0513 | 0.0523 | 0.0588 | 0.0394 | 0.0508 | – | – | –
V67L | 0.0632 | 0.0817 | 0.0467 | – | 0.0996 | 0.0592 | – | 0.105 | 0.0302 | 0.0504 | – | 0.066 | 0.0681 | – | – | – | 0.0501 | 0.0696 | –
V67T | 0.0535 | 0.0868 | 0.0587 | 0.0607 | 0.0614 | 0.0784 | 0.0939 | – | 0.0638 | – | 0.0601 | 0.0648 | – | 0.0614 | – | – | 0.0703 | – | 0.0704
V57L | 0.06 | 0.0618 | 0.064 | – | 0.0795 | 0.0758 | – | 0.0916 | 0.0629 | 0.0301 | 0.0602 | 0.0612 | 0.0618 | – | – | – | 0.0738 | – | 0.0643
V57G | 0.0621 | 0.0873 | – | 0.0562 | 0.0592 | 0.0488 | 0.103 | 0.0863 | 0.0394 | – | 0.0583 | – | 0.06 | 0.0653 | 0.0362 | – | 0.0703 | – | 0.0801
V57W | 0.0727 | 0.0525 | 0.0491 | 0.0576 | 0.0667 | 0.0418 | – | – | 0.0619 | 0.0628 | 0.0658 | 0.0536 | 0.0525 | – | – | 0.069 | 0.0906 | – | –
D69L | 0.0574 | – | 0.0553 | 0.0632 | 0.0574 | 0.043 | 0.0824 | – | 0.0717 | 0.0668 | 0.0614 | 0.0659 | 0.0601 | 0.0687 | 0.0718 | 0.0612 | 0.0671 | 0.0473 | 0.0663
D69W | 0.0547 | – | 0.0581 | – | – | 0.0653 | – | – | 0.0609 | – | 0.0508 | 0.0629 | 0.0698 | 0.0282 | 0.0025 | 0.0531 | 0.0684 | – | 0.0704
G63Q | 0.0632 | 0.065 | 0.067 | 0.0429 | 0.0493 | 0.0501 | 0.106 | 0.0787 | 0.056 | 0.0618 | 0.0559 | 0.042 | 0.049 | 0.0577 | – | 0.0638 | 0.0709 | 0.0577 | 0.0604
G63Y | 0.059 | 0.0576 | 0.0709 | 0.0544 | – | 0.049 | 0.0932 | 0.063 | – | – | 0.0698 | – | – | – | – | – | – | – | 0.0647
I85P | 0.0431 | 0.04 | 0.0468 | – | 0.0238 | 0.0241 | – | – | 0.0479 | 0.0451 | – | 0.0248 | 0.0391 | 0.0412 | – | 0.0521 | 0.0382 | 0.0389 | 0.0414
Q75C | 0.0556 | 0.0497 | 0.0671 | 0.0415 | 0.0578 | 0.0646 | – | 0.109 | 0.0731 | 0.0591 | 0.0543 | 0.0629 | 0.0612 | 0.0598 | – | – | 0.0762 | 0.0638 | 0.0706
H47Y | 0.0641 | 0.0588 | 0.0504 | 0.0634 | 0.061 | 0.06 | – | 0.0929 | 0.0688 | 0.053 | 0.0514 | – | 0.0711 | 0.0581 | 0.0085 | 0.0581 | 0.057 | 0.0393 | 0.0695
M83T | 0.055 | 0.0612 | 0.079 | 0.054 | – | – | 0.064 | 0.0761 | – | 0.0592 | 0.0678 | – | 0.0632 | 0.0609 | – | – | 0.083 | 0.061 | 0.058
M83W | 0.0433 | 0.0617 | 0.0708 | 0.0669 | 0.0794 | – | – | 0.0526 | 0.0498 | 0.0426 | 0.0568 | 0.054 | 0.0567 | – | 0.065 | 0.062 | 0.0659 | – | 0.0444
L77N | 0.0482 | 0.0643 | 0.0703 | – | 0.0596 | 0.0536 | 0.105 | 0.055 | 0.0485 | 0.0596 | 0.0733 | 0.0637 | 0.0574 | 0.0584 | 0.0594 | 0.0715 | 0.0597 | – | 0.039
L77S | 0.0584 | 0.0603 | 0.0532 | – | 0.0505 | – | 0.0664 | 0.0593 | 0.0601 | 0.0435 | 0.0582 | 0.0582 | 0.0605 | 0.0514 | – | – | – | – | 0.0609
R51A | 0.0605 | 0.0659 | 0.0549 | – | – | – | – | 0.0755 | 0.0646 | – | 0.069 | – | – | – | 0.0687 | 0.0688 | 0.0793 | – | 0.0764
F49P | 0.0504 | 0.0615 | 0.0546 | 0.0511 | – | – | 0.058 | 0.0399 | 0.0542 | 0.05 | 0.0532 | 0.0502 | 0.0605 | 0.0498 | 0.0541 | 0.0652 | 0.0476 | – | 0.0529
F49K | 0.0599 | 0.0621 | 0.0657 | 0.0496 | 0.0414 | 0.06 | 0.0525 | 0.0547 | 0.0457 | 0.0376 | 0.0554 | 0.0503 | 0.0609 | 0.0621 | – | 0.0697 | 0.0613 | 0.063 | –
F49G | 0.0679 | – | 0.0564 | 0.0584 | 0.0594 | 0.0633 | 0.0571 | 0.06 | 0.0675 | 0.0545 | 0.0549 | – | 0.0601 | 0.0532 | 0.0447 | 0.0264 | 0.0523 | 0.0683 | 0.0504
F49R | 0.0583 | 0.0761 | 0.0596 | 0.0633 | 0.0506 | 0.0822 | – | 0.034 | 0.0454 | 0.0516 | 0.051 | – | 0.0474 | – | 0.0196 | – | 0.0598 | – | 0.0678
K66P | 0.0604 | 0.0675 | 0.0673 | 0.0535 | 0.0528 | 0.0442 | 0.0926 | – | 0.0526 | – | – | – | 0.0374 | 0.0575 | 0.0513 | – | – | 0.0517 | 0.0757
T72D | 0.0464 | 0.0623 | 0.0747 | 0.0617 | 0.0558 | – | 0.106 | – | 0.0613 | 0.0552 | 0.0735 | 0.0612 | 0.0584 | 0.0664 | – | – | 0.0622 | 0.063 | 0.0493
